The target of the test is T1, human 4-1BB (human, UniProt Q07011 24-255).
T1 construct: whole, on cells; Expressed on CHO-K1/hu 4-1BB cells (GenScript, M00538); also called CD137; TNFRSF9
As to the kind of experiment: flow cytometry, CHO-K1/hu 4-1BB cells (refers back to FIG. 3 (D)). Background: Flow cytometry measures light scatter and fluorescence of single cells or particles in a stream.

From US20230303698A1 (HARBOUR BIOMED SHANGHAI, published 2023) come the findings set out here.

T1 sequence (Q07011 24-255): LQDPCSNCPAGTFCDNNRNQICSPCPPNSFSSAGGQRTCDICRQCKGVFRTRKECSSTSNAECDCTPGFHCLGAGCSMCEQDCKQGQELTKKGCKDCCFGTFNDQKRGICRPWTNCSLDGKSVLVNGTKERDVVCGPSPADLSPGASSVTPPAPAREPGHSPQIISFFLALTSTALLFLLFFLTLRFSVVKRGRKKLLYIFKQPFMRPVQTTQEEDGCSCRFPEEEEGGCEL

B1: PR004278 (bispecific antibody, human IgG1, kappa)
light: EIVMTQSPATLSVSPGERATLSCRASQSISSNLGWYQQKPGQAPRLLIYGASTRATGIPARFSGSGSGTEFTLTISSLQSEDFAVYYCQQYQSWPPLTFGGGTKVEIKRTVAAPSVFIFPPSDEQLKSGTASVVCLLNNFYPREAKVQWKVDNALQSGNSQESVTEQDSKDSTYSLSSTLTLSKADYEKHKVYACEVTHQGLSSPVTKSFNRGEC
heavy: EVQLVESGGGVVQPGGSLRLSCAASGFTFSNYAMTWVRQAPEKGLEWVSSISGSGVSTYYADSVKGRFTISRDNSKNTLYLQMTRLTAEDTAVYFCAKEGSSETDDHYYNVDVWGQGTTVTVSSGGGGSGGGGSGGGGSQVQLVESGGGVVQPGRSLRLSCAASGFTFRSFGMHWVRQAPGKGLEWVAVISYDASNEYYADSVKGRFIISRDNSKDTLYLQMNSLRAGDTAVYYCAKGGGLRWYFAYWGQGTLVTVSSASTKGPSVFPLAPSSKSTSGGTAALGCLVKDYFPEPVTVSWNSGALTSGVHTFPAVLQSSGLYSLSSVVTVPSSSLGTQTYICNVNHKPSNTKVDKKV[letters of human IgG1 Fc with changes not shown]
notes: Structure 7, VH-IgG tetravalent symmetric; 4-1BB VH from PR001760 at the N-terminus of the heavy chain of the B7H4 IgG PR002408; linker GS_15; human IgG1 (LALA); also called B7H4×4-1BB molecule with the VH-IgG structure
Turning to B1, the binding result is “binds”.
